Source: paper PMC4336329 (PLoS ONE, 2015)
The campaign covered roughly 310,000 compounds. About 2,200 (0.71%) showed an effect of 50% or more. The effect is printed as a negative number. The list shows a part of the results.

target: human ether-à-go-go-related gene (hERG) potassium channel (human, UniProt Q12809); assay: primary screen, population patch clamp on CHO cells stably expressing hERG
Sequence (Q12809 whole entry, looked up): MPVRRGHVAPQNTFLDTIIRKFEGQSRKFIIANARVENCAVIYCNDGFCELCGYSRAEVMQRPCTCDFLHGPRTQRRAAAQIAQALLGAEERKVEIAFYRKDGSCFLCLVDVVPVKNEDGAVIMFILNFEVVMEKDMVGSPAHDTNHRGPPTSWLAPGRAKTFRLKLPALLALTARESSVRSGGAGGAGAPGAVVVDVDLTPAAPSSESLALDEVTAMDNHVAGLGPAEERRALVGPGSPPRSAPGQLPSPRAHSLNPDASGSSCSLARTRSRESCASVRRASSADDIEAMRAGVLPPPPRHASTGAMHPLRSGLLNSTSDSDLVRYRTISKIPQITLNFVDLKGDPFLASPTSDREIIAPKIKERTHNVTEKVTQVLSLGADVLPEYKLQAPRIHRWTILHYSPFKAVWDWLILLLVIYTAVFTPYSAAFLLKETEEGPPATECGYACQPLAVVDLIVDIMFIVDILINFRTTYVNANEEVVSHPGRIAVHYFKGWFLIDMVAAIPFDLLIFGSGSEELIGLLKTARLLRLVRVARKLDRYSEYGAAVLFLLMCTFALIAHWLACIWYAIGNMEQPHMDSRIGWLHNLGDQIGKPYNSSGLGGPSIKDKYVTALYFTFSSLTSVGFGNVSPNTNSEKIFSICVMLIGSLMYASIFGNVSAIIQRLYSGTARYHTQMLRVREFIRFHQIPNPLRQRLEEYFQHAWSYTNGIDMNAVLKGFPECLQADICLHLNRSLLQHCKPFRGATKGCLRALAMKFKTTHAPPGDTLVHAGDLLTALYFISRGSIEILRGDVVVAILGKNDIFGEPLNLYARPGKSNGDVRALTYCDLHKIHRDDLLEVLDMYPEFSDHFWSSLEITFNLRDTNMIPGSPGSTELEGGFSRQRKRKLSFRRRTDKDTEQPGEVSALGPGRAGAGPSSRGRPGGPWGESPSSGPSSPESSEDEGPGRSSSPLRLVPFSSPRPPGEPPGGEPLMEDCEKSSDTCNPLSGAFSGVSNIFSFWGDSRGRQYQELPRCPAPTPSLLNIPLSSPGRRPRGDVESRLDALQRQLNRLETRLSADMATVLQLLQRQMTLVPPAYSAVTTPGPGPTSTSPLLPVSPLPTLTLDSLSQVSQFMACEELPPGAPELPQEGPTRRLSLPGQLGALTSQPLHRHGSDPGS

SMILES | hERG current change (%, negative = inhibition) at 1uM [%]
NC(=O)[C@H]1CC2(CC(c3cccc(NC(=O)[C@H]4CCC(=O)N4)c3)=NO2)CN1C(=O)c1ccccc1C(=O)c1ccccc1 (stereo partly drawn) | 8.06
COc1ccc(C(=O)NCc2nnc(SCC(=O)c3ccc(F)cc3)n2C)cc1OC | -5.57
CC(C)C[C@@H](C(=O)NCC1CCCO1)N1C(=O)N2CCc3c([nH]c4ccccc34)[C@@]2(C)C1=O (stereo partly drawn) | -10
Cc1cc(N2CCOCC2)c(F)cc1C(=O)c1ccccc1 | 16.1
COc1cccc(CNC(=O)c2ccccc2C(=O)NC(C)(C)C(=O)NCc2cccc(OC)c2)c1 | 12.8
Cc1ccc(-n2ncc3c(=O)n(CC(=O)N4CCN(C(=O)c5ccco5)CC4)cnc32)cc1 | 6.22
Cn1nnc(NC(=O)c2cccc([N+](=O)[O-])c2)n1 | 9.93
O=C(Nc1ncc2c(n1)-c1ccccc1OC2)c1ccc(F)cc1 | 0.334
O=C(Nc1ccc(Cl)c(Cl)c1)Nc1nnc(CC2=CCCCC2)s1 | 10.8
COc1ccc(C2/C(=C(/O)c3ccccc3)C(=O)C(=O)N2CCN2CCOCC2)c(OC)c1 (stereo not drawn) | -9.29
O=C(O)CCn1cc(/C=C2/NC(=S)N(c3ccccc3)C2=O)c(-c2ccccc2)n1 | 15.7
CCC(=O)Oc1cccc(C(=O)Nc2cccc(NC(=O)c3ccco3)c2)c1 | 7.24
C=C1CCN([C@@H](Cc2ccccc2)C(=O)NCc2ccc(Cl)cc2)S(=O)(=O)c2ccccc21 | 9.72
O=C(Cc1ccc(Cl)cc1)N1CCC2(CC1)NCCc1[nH]cnc12 | 16.9
FC(F)(F)c1cccc(NC(=S)NC(c2ccccc2)c2ccccc2)c1 | 9.67
Cn1ccnc1SCC(=O)Nc1cc(F)ccc1F | 8.25
Cc1nc(NC(=O)c2ccccc2)sc1-c1csc(N)n1 | 9.83
Cn1c(SCC(=O)NCCc2ccccc2)nnc1-c1ccncc1 | 16.4
CC1=CC(=C(C#N)c2nc3ccccc3s2)C=C(C)N1c1ccc(F)cc1 | 11.5
CCOc1nc(Nc2ccccc2F)nc(OCC)n1 | 6.95
COc1ccc(C(=O)CC(=O)C(=O)Nc2cc(Cl)c(OC)cc2OC)cc1 | 6.6
Cc1onc(-c2ccccc2)c1C(=O)NC(=S)Nc1sc2c(c1C#N)CCCC2 | 3.61

SMILES | hERG current change (%, negative = inhibition) at 1uM [%]
CCC(=O)Nc1ccc(C(=O)CN2C(=O)NC3(CCCCCC3)C2=O)cc1 | 11.2
Cn1c(=O)c(C(=O)CN2CCN(Cc3ccc4c(c3)OCO4)CC2)c(N)n(Cc2ccccc2)c1=O | -40.4
CC(=O)NC(CCCNC(=S)NC1CCCCC1)C(=O)O (stereo not drawn) | 22.9
Cc1cccc(N2CCN(S(=O)(=O)c3c(C)nc4scc(C)n4c3=O)CC2C)c1 (stereo not drawn) | 3.87
C=CCn1c(C)cc(C(=O)COC(=O)C2CC(=O)N(Cc3ccccc3)C2)c1C (stereo not drawn) | 2.72
Br.Cc1cc(C)cc(Nc2nc(-c3ccc(S(=O)(=O)N4CCCC4)cc3)cs2)c1 | 5.11
CCOC(=O)N1CCN(C(=O)CCNS(=O)(=O)c2ccc(C)c(C)c2)CC1 | 11.2
O=C(NCc1ccccc1)C(Cc1ccccc1)N1C(=O)C2C3CCC(C3)C2C1=O (stereo not drawn) | -1.98
Nc1cc(OC(=O)c2cccs2)nn1S(=O)(=O)c1ccccc1 | 15.7
CC(C)Cc1cc(C(=O)NCCCN2CCOCC2)no1 | 4.89
Cc1ccc(C(=O)OCC(=O)Nc2cc(S(=O)(=O)N3CCOCC3)ccc2C)cc1 | 9.8
Cc1c(C(=O)Nn2cnnc2)oc2ccccc12 | 0.596
CCN(CC)CCNC(=O)CCn1c(=S)[nH]c2cc3c(cc2c1=O)OCO3 | -0.984
O=C(COC(=O)/C=C/c1ccc(F)cc1)NCc1cccs1 | 8.87
CSCCCN1CCCC(CO)(Cc2ccc(F)cc2)C1 (stereo not drawn) | 4.98
C=CCSc1nc(N(CC)CC)c2sccc2n1 | 4.73
O=C(c1cccc(S(=O)(=O)N2CCOCC2)c1)N(Cc1ccc(F)cc1)Cc1ccco1 | -55.2
CCCCCn1c(=O)c(C(=O)Nc2c(C)n(C)n(-c3ccccc3)c2=O)c(O)c2ccccc21 | 7.48
CN(C)CCNC(=O)c1onc(CSc2nc3ccccc3[nH]2)c1C(=O)NCCN(C)C | -2.06
CCCCC(=O)NC(=S)Nc1cc(C(=O)O)ccc1Cl | 18.8
Cc1ccsc1CNC1CCCCC1 | 13
O=C1CCCc2c1cc(C(=O)NCc1ccco1)c(=O)n2-c1ccc(Cl)cc1 | -19.8

SMILES | hERG current change (%, negative = inhibition) at 1uM [%]
Cc1noc(C)c1COc1ccccc1C(=O)NC1CCC(C)CC1 (stereo not drawn) | 10.3
O=C(Nc1ccc2oc(-c3ccccc3)nc2c1)c1cccs1 | 7.22
COc1ccc(C(=O)Cc2ccc3c(c2)OCO3)c(O)c1 | 1.76
Cc1c(NC(=O)Nc2ccc(Cl)c(Cl)c2)c(=O)n(-c2ccccc2)n1C | 9.59
COc1ccc(-c2cc3c(=O)n(CC(=O)NCc4cccnc4)nc(C)n3n2)cc1 | 19.3
C[N+](C)(C)CCOC(=O)CCC(=O)OCC[N+](C)(C)C.O.[Cl-] | 8.28
CCOc1ccc(/C=N/NC(=O)c2ccccc2C)cc1CN1CC2CC(C1)c1cccc(=O)n1C2 (stereo not drawn) | -1.03
CCCOc1ccc(/C(O)=C2/C(=O)C(=O)N(c3ccccn3)C2c2ccc(OC)cc2)cc1C (stereo not drawn) | 14
Cc1ccc(NC(=O)c2cnc(SCC(=O)c3ccccc3)n(C)c2=O)cc1 | 17
O=C(O)c1ccccc1C(=O)N1N=C(c2ccccc2)CC1c1ccccc1O (stereo not drawn) | 11.4
Cc1cc2nccc(-c3cccnc3)n2n1 | 9.97
CCC/C=N/NC(=O)c1cccc(Br)c1 | 10.3
COc1ccc(Cl)cc1S(=O)(=O)Nc1ncn[nH]1 | 6.5
O=S(=O)(NCCc1csc(-c2ccccc2)n1)c1cccnc1 | 12.4
CC(=O)NNc1cccc(Cl)n1 | 4.36
CC1(C)CC(=O)c2cc(OCC(=O)NCCCN3CCN(c4ccc(F)cc4)CC3)ccc2O1 | -60.3
Cc1ccccc1NC(=O)Nc1ccccc1Br | 13
CC1CCN(C(=O)c2ccc(NC(=O)c3cccs3)cc2)CC1 | 11.2
O=C(NCCc1ccccc1)C1COc2ccccc2O1 (stereo not drawn) | 15.2
Cc1ccc(NS(=O)(=O)c2ccc(C(=O)NCc3ccccn3)cc2)cc1 | 16.4
COc1ccc(Cl)cc1NC(=O)NC1CCCCC1 | 9.6
CCOC(=O)C1=C(c2ccccc2)NC(=O)NC1c1cccc(OC)c1OC (stereo not drawn) | 11.1

SMILES | hERG current change (%, negative = inhibition) at 1uM [%]
CC(=O)c1cc(-c2ccccc2)n(CCC(=O)NC2CCCCCC2)c1C | -1.38
C=CCOC(=O)C1=C(C)OC(N)=C(C#N)C1c1ccc(F)cc1 (stereo not drawn) | 5.22
CCC(=O)NC(=S)Nc1ccc(NC(=O)c2ccc([N+](=O)[O-])cc2Cl)cc1 | 4.72
COc1ccc(N(C)S(=O)(=O)c2cccc(C(=O)Nc3nc4ccccc4[nH]3)c2)cc1 | 12.9
COc1ccc(OC)c(S(=O)(=O)N2CCC(C(=O)NC3CCCCC3)CC2)c1 | 7.94
COc1ccc(-c2noc(CCC(=O)NCCCN3CCC(Cc4ccccc4)CC3)n2)cc1 | -84.9
Cc1cccc(NC(=O)c2cc(NC(=O)C3CC=CCC3C(=O)O)ccc2N2CCOCC2)c1 (stereo not drawn) | 6.86
CC(=O)N/C(=N/c1nc(C)cc(C)n1)Nc1ccc(NC(C)=O)cc1 | 12.1
CCCNC(=O)NC(=O)COC(=O)c1cccc(NS(=O)(=O)c2ccc(F)c(F)c2)c1 | 6.01
O=C(c1cc(-c2ccc(Cl)cc2)n(-c2ccc(Cl)c(Cl)c2)n1)N1CCOCC1 | 5.69
Cc1cc(C(=O)N2CCC(C(N)=O)CC2)c(C)o1 | 7.56
O=S(=O)(c1cnccc1N1CCN(/N=C/c2ccc(Cl)cc2)CC1)N1CCCCC1 | 7.98
Fc1ccc(/C=N\Nc2cccc(F)c2)cc1 | 7.8
O=C(CSc1ccc(F)cc1)Nc1ccc(N2CCOCC2)cc1 | -5.65
O=C1CCCc2c1[nH]c1c(Br)cccc21 | -0.123
CCC1(c2ccccc2)NC(=O)N(CC(=O)NNC(=O)COc2ccc(Cl)cc2C)C1=O (stereo not drawn) | 6.59
O=C(COC(=O)C12CC3CC(CC(C3)C1)C2)Nc1nccs1 | 20.8
CCN(C(=S)Nc1ccc(OC(F)F)cc1)C1CCCCC1 | -1.82
Cc1cccc(NC(=O)N2CCN(Cc3ccccc3)CC2)c1 | 13.3
O=C(c1ccc(NS(=O)(=O)c2cccc(F)c2)cc1)N1CCCC1 | 3.36
Cc1cc([N+](=O)[O-])nn1CCCC(=O)Nc1cc(Cl)ccc1Cl | -3.37
